Results taken from publication PMC7819943, “Rice protein-binding microarrays: a tool to detect cis-acting elements near promoter regions in rice”.
The other results are listed elsewhere or left out.

target: T1, OsWOX13 (Oryza sativa, UniProt Q5QMM3 1-267); test: protein-binding microarray (RPBM); PBS, 2% BSA, 51.3 ng/ul salmon testes DNA, 50 uM zinc acetate, 200 nM TF, 25 C, 1 h; high values mean tight binding; conditions: protein: recombinant; tags: N-terminal polyhistidine and DsRed monomer fusion (pET32a); label: CyDye5-dUTP incorporated in the synthesized complementary strand; 3' TTTTT single-stranded linker to array surface; dsDNA, one strand shown
T1 sequence: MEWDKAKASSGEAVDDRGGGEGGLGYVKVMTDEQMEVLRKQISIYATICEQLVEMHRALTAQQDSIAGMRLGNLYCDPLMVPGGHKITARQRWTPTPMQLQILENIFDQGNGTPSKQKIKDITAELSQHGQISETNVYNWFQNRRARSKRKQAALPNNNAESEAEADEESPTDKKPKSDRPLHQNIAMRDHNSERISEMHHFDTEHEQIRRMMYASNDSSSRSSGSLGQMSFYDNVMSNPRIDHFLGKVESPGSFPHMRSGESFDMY
In short: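 Using Ni–NTA, transcription factors fused N-terminally to polyhistidine and DsRed were purified after expression in E. coli BL21-CodonPlus. These were incubated at 200 nM with a blocked, double-stranded custom Agilent array for 1 h at 25 °C in a buffer containing 50 µM zinc acetate, and the array was washed. The binding signal is per-feature fluorescence intensity (arbitrary units) on an Axon 4000B scanner.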

Sequence | binding signal
GCTGATTAGGCGCTGGTGTGCTGCCTGAGAGCTTAGACCACGGAGTCACCTAGTGCAG | 20600 fluorescence intensity (a.u.)
AGCCATTAGCTCATGATTAATTGAGTATTAACTATTTTAACGGAGTCACCTAGTGCAG | 8400 fluorescence intensity (a.u.)
CCGATGATGATATGAAACAGACGATCGCGGTTCTTGGCTACGGAGTCACCTAGTGCAG | 9240 fluorescence intensity (a.u.)
CAAGTTGATTTCTATGATATGTGCCAAGTAGTCGAGAGCCCGGAGTCACCTAGTGCAG | 13900 fluorescence intensity (a.u.)
ATGTGATTAAATGGAGGGTTTTCGGGGAGGGTTTTCGGGGCGGAGTCACCTAGTGCAG | 23100 fluorescence intensity (a.u.)
AGGAAAATGACGGCACTCATTGACGATAAATTAACTTGTGCGGAGTCACCTAGTGCAG | 7260 fluorescence intensity (a.u.)
CCTCTGCAATAACTATGATCATTGATAAGCTGCTGAACAGCGGAGTCACCTAGTGCAG | 3780 fluorescence intensity (a.u.)
CAAGTGTGGATTTGATTTATTAATTAGTCTCTTTCTGTCGCGGAGTCACCTAGTGCAG | 9210 fluorescence intensity (a.u.)
GGCCCATATAAATTAAATATTATTTGCATAGTCAAAGCCGCGGAGTCACCTAGTGCAG | 4700 fluorescence intensity (a.u.)
TTGTGATTATTATTTTCGGGATTGCTATCTGTCATTCGAACGGAGTCACCTAGTGCAG | 29100 fluorescence intensity (a.u.)
GTTCATTAAATCTATAATTGAATATATTTCATAATATATTCGGAGTCACCTAGTGCAG | 4610 fluorescence intensity (a.u.)
AGTCTATCTTTAATTAGATAAAGTAGTCTATTAGCTACGTCGGAGTCACCTAGTGCAG | 8670 fluorescence intensity (a.u.)
CCAGGATTGTCATGAAATTGCTAATTAACGACTAGTTGTGCGGAGTCACCTAGTGCAG | 41900 fluorescence intensity (a.u.)
TGCTAAATGACACTTTCGGCTCAATTGAAAAGAAAAGTTCCGGAGTCACCTAGTGCAG | 5830 fluorescence intensity (a.u.)
TTATCTATTAATTGGTTTTGCTGCCCTTGCAACATTATATCGGAGTCACCTAGTGCAG | 17200 fluorescence intensity (a.u.)
AAACTGATTGACGGTTTTCTTTCTAAAACTGATTTTCAGGCGGAGTCACCTAGTGCAG | 43200 fluorescence intensity (a.u.)
ATGATTGATCGATCATCAAGCTAAAGATAATGCTATGCAACGGAGTCACCTAGTGCAG | 55100 fluorescence intensity (a.u.)
TCACAAAATAATTAACTTTAAAATTAAATTTTAGCAGCAGCGGAGTCACCTAGTGCAG | 15100 fluorescence intensity (a.u.)
TCTGATAATTGTTCCATAATCCTGTGTCTGAATACACTTGCGGAGTCACCTAGTGCAG | 31000 fluorescence intensity (a.u.)
GAAGTTATGTGTGATTTGTTATATATCCGTTGGCGTAACACGGAGTCACCTAGTGCAG | 4460 fluorescence intensity (a.u.)
TTTGATTAATTCAGTGCTTCCTTCCCGTTACATTACACTGCGGAGTCACCTAGTGCAG | 54000 fluorescence intensity (a.u.)

Sequence | binding signal
ATCTAGATATATATATTAAATTAACATCATTATAAACGTGCGGAGTCACCTAGTGCAG | 6350 fluorescence intensity (a.u.)
GCCCCTAATAGACGAATTCCGAGTCCGGTGTGACCGGCGTCGGAGTCACCTAGTGCAG | 9630 fluorescence intensity (a.u.)
GAATCATTCTGCCAATTAAGCAACACAATCATGGAGGACACGGAGTCACCTAGTGCAG | 11800 fluorescence intensity (a.u.)
TAATTAAATAGAAGCATGAATTGCTTCTCATGTTTGCTCGCGGAGTCACCTAGTGCAG | 3620 fluorescence intensity (a.u.)
CCCAAAGTGATTATAAATTTGCACCCATCTATTGGCACATCGGAGTCACCTAGTGCAG | 37300 fluorescence intensity (a.u.)
GGTTGACTGATCGCAATAACATGAGTGCTTTGATTCATCACGGAGTCACCTAGTGCAG | 27900 fluorescence intensity (a.u.)
GATGATTTTGGGTTCACGAGGCATAGCATTTCTAGTTCACCGGAGTCACCTAGTGCAG | 10400 fluorescence intensity (a.u.)
ACCAATAATTAACCGGATAGCCATAAAAGCTCACACACTTCGGAGTCACCTAGTGCAG | 13900 fluorescence intensity (a.u.)
AAATATAGATAGATTGGTAGGTAGACTCTGAGAGTCAGATCGGAGTCACCTAGTGCAG | 38000 fluorescence intensity (a.u.)
ATAAATTACATAAACAATATGTAAATCAAGTGATTACATTCGGAGTCACCTAGTGCAG | 20900 fluorescence intensity (a.u.)
ACGACCTCCATTGATTAACTACGTGCGTGTGAGAAACTAACGGAGTCACCTAGTGCAG | 3720 fluorescence intensity (a.u.)
CTGCGCATATCTTAAGATTGATAAAGCCATTATGGGCGTCCGGAGTCACCTAGTGCAG | 4120 fluorescence intensity (a.u.)
CAAACACCTCCTGTTTTGATTGGTGATGCACACTAACAAGCGGAGTCACCTAGTGCAG | 5020 fluorescence intensity (a.u.)
AAGTTATATATATTGATGATTTATACAACTTTGTTGGTGACGGAGTCACCTAGTGCAG | 3620 fluorescence intensity (a.u.)
GCAGCACAGCTTAATCAATTACCCTTGCATCGACCATAGCCGGAGTCACCTAGTGCAG | 3300 fluorescence intensity (a.u.)
ATTACATAGATTACGTGTAAAATTGTGAGACGAATCTTTTCGGAGTCACCTAGTGCAG | 4690 fluorescence intensity (a.u.)
TTATAATTTATTTTGTTATGGATTGTTTTATCGTTCATAGCGGAGTCACCTAGTGCAG | 29900 fluorescence intensity (a.u.)
GCGATATCCATTGATTGAAAATTCTGCAAGATTCAAATATCGGAGTCACCTAGTGCAG | 20800 fluorescence intensity (a.u.)
ATTAACCATAATTAACGATGTAATTAACGGTCGAGTTGCACGGAGTCACCTAGTGCAG | 48800 fluorescence intensity (a.u.)
CCTGCTAATCGTAAATTATTTTCTGAAATATTAGTATCAACGGAGTCACCTAGTGCAG | 8670 fluorescence intensity (a.u.)
CATTTTGATTTGTTGCCACGTTCAACCCGATAACATGTATCGGAGTCACCTAGTGCAG | 34500 fluorescence intensity (a.u.)

Sequence | binding signal
ACCTCTTTTAACATCTAATCAAACGTCTAATGTAACTCCTCGGAGTCACCTAGTGCAG | 6570 fluorescence intensity (a.u.)
CTGCAATAATTGGGCATATCTTGGCGCACGCATCAGCAATCGGAGTCACCTAGTGCAG | 13700 fluorescence intensity (a.u.)
TTTTAATTAGTATATGTTTAATACACTAAATTAGTGTCCACGGAGTCACCTAGTGCAG | 47800 fluorescence intensity (a.u.)
CTTGACTAGGGACTCATACGTAATCATGGTTACAAGGATTCGGAGTCACCTAGTGCAG | 3400 fluorescence intensity (a.u.)
TCGTGAACTCATGATTAGGAGGGAGAAGACACTGGTAGAGCGGAGTCACCTAGTGCAG | 3220 fluorescence intensity (a.u.)
TCCAATTAATGGCCACAGCAAGATAGACACCTAAGATAAACGGAGTCACCTAGTGCAG | 5860 fluorescence intensity (a.u.)
AATTACATAGGTTAATTAAATAATTAATTACTGCCACTACCGGAGTCACCTAGTGCAG | 36500 fluorescence intensity (a.u.)
CATTAACTACATCCAGTTATCAGCCCTGTCGTTTCTCTGCCGGAGTCACCTAGTGCAG | 3750 fluorescence intensity (a.u.)
CTCAACACGAAAATCACCATTTAATTAGTGGAATAAGTTCCGGAGTCACCTAGTGCAG | 4740 fluorescence intensity (a.u.)
AGAAACAATCTAATTGGGTCATTGTGATGCAATTATTTATCGGAGTCACCTAGTGCAG | 4700 fluorescence intensity (a.u.)
AACCTGTTGAAAATTATTAATTTTGAAAGCTTCTACTCTTCGGAGTCACCTAGTGCAG | 5900 fluorescence intensity (a.u.)
GCCCATTAATTTTAGTCGGTGTGGCTGGTTTGTTCACTGACGGAGTCACCTAGTGCAG | 3670 fluorescence intensity (a.u.)
ACCGTTGACTGGAACTCGTACGGATACAGCGGGTAGTTGCCGGAGTCACCTAGTGCAG | 16500 fluorescence intensity (a.u.)
ACCAAATTAATATCATCAAATCAAATGTTAAATATATTTGCGGAGTCACCTAGTGCAG | 19200 fluorescence intensity (a.u.)
TTTTAATTTGTTTGGATTAAGCCAAGTGACAATCTAAAATCGGAGTCACCTAGTGCAG | 13500 fluorescence intensity (a.u.)
ATACTTGATTTAAAATGAAAACATAGACAAATGTATGGTACGGAGTCACCTAGTGCAG | 23800 fluorescence intensity (a.u.)
GCTATATTTAATTAACCATGTCTTAATCCGTCACTCTGTTCGGAGTCACCTAGTGCAG | 14000 fluorescence intensity (a.u.)
AAGAAAATTGGTAGATCTTAACGAGTTCTACAACTTTATTCGGAGTCACCTAGTGCAG | 4040 fluorescence intensity (a.u.)
TTTGAATTTACATATGTAATTTTAGTACTTACATATGTAACGGAGTCACCTAGTGCAG | 4290 fluorescence intensity (a.u.)
GTTAGGGGATGATTTTGTAACTAGATGACAAGTTGAGGGACGGAGTCACCTAGTGCAG | 7730 fluorescence intensity (a.u.)
TTGGGATTTGTTGATTGTAGTGTTAAATGTGTGCAATGTGCGGAGTCACCTAGTGCAG | 14800 fluorescence intensity (a.u.)

Sequence | binding signal
TGAAATTTCAGTTTAAGAATTTATACACTGATAATCCAAACGGAGTCACCTAGTGCAG | 6370 fluorescence intensity (a.u.)
GCTGATCGCCAATCACTTGCCTTAGATGATTCTGCAATATCGGAGTCACCTAGTGCAG | 24000 fluorescence intensity (a.u.)
AAATTGATAATAATAGAGGGATAGCTGTTCTGAGGCTATACGGAGTCACCTAGTGCAG | 4170 fluorescence intensity (a.u.)
TCGAGATGGATAATTAGATTGATTGATTGGCCGATAGCCCCGGAGTCACCTAGTGCAG | 65100 fluorescence intensity (a.u.)
TGTTTGTAATTTGAGAAAATTTGAGGGATCATTCTGCATTCGGAGTCACCTAGTGCAG | 11700 fluorescence intensity (a.u.)
TTTCATGTAAATTAACACGAGCCTGAATCCTCCGTTGAAGCGGAGTCACCTAGTGCAG | 3750 fluorescence intensity (a.u.)
ACGTTAATTTTCGCAGCATTACGGTATTTATAATCAGGCCCGGAGTCACCTAGTGCAG | 12700 fluorescence intensity (a.u.)
ATTCGTGTCCATTAATTATATTTCGATAAAATCCGTTTTCCGGAGTCACCTAGTGCAG | 7940 fluorescence intensity (a.u.)
CACAAATTTAACCTCAGCTTCAGCTTCATCACTGCCAAATCGGAGTCACCTAGTGCAG | 4400 fluorescence intensity (a.u.)
ACTTATGAATAAGCCAATTAGCCAACATTAATAGGAGGTCCGGAGTCACCTAGTGCAG | 9220 fluorescence intensity (a.u.)
TGAGATTAGGTATGATAGGATAATTCCAAAAGAGAATATACGGAGTCACCTAGTGCAG | 6500 fluorescence intensity (a.u.)
GGTAAATGATTTACCGTTGGATCGACCGATCCCGTTCTCTCGGAGTCACCTAGTGCAG | 41300 fluorescence intensity (a.u.)
AATTTTGTTAATTCGGTTAACCGATCCTAATAACCAAAATCGGAGTCACCTAGTGCAG | 4780 fluorescence intensity (a.u.)
TAGAGATTAGACACGTGGACGGTGATGAGGCGATCGAGCACGGAGTCACCTAGTGCAG | 4510 fluorescence intensity (a.u.)
TATAATTTAAATTTAACTAAATTAATGGTATTACAGATGTCGGAGTCACCTAGTGCAG | 58500 fluorescence intensity (a.u.)
ATTGGTGACTAGTTATAATTAAATTTAGGTCATCGGTTATCGGAGTCACCTAGTGCAG | 11500 fluorescence intensity (a.u.)
CTCTATAACAAGCTATAATTGGCCTCGAAACTAAACCTTGCGGAGTCACCTAGTGCAG | 11800 fluorescence intensity (a.u.)
TGCAGTCCTCTAATGATTAATATTTCACCACAGGTTGTTCCGGAGTCACCTAGTGCAG | 3690 fluorescence intensity (a.u.)
GGATTATCATATAATAGATTAGCAAACTAATACCAAATCCCGGAGTCACCTAGTGCAG | 11900 fluorescence intensity (a.u.)
ACCAACTGTTGATTTCCTTTGCAATGTCTTGTGATACCACCGGAGTCACCTAGTGCAG | 4450 fluorescence intensity (a.u.)
AAAATAATTGATTGCAGCAGTAGTGGTTATTTTGGCAAGACGGAGTCACCTAGTGCAG | 50100 fluorescence intensity (a.u.)
